Assay results from the supplement of paper PMC12645437, “Orthogonal IMiD-Degron Pairs Induce Selective Protein Degradation in Cells” (ACS Chemical Biology, 2025).
The list shows a part of the results.

The sequences below were run against no compound (DMSO) (assay: log2 fold change of degron read counts, EGFP-low vs EGFP+ sorted cells; higher = lower degron-EGFP level without compound (poor expression or instability)). Conditions: compound: DMSO control; 18 h.
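Note: jurkat cells carrying a lentiviral library of mutant zinc finger degrons fused to EGFP plus mCherry, mCherry+ cells FACS sorted, degron abundance counted by next-generation sequencing.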

| Sequence | log2 fold change of degron read counts |
| --- | --- |
| FICNVCGANFTQKGNLLRHIKL | -0.575 |
| FQCPICGRPFTQKGNLLRHIKL | -0.121 |
| FTCNICGAAFTQKGNLLRHIKL | -0.272 |
| LSCNQCGFGCTQKGNLLRHIKL | 0.816 |
| FTCDICGAPFTQKGNLLRHIKL | -0.696 |
| FGCDVCGARFTQKGNLLRHIKL | -1.7 |
| FLCSVCGHNFTQKGNLLRHIKL | -0.358 |
| FKCNQCGAFFTQKGNLLRHIKL | 0.113 |
| FACPICGRGFTQKGNLLRHIKL | -0.0959 |
| FFCEICGRLFTQKGNLLRHIKL | 0.405 |
| FGCPVCGAQFTQKGNLLRHIKL | -0.234 |
| FMCDICGAHFTQKGNLLRHIKL | -1.19 |
| FACEVCGAPFTQKGNLLRHIKL | -0.509 |
| FRCEVCGARFTQKGNLLRHIKL | -1.43 |
| FICEQCGAKFTQKGNLLRHIKL | -1.65 |
| FFCDVCGAQFTQKGNLLRHIKL | -1.51 |
| LLCNQCGFICTQKGNLLRHIKL | 1.34 |
| FGCNQCGRLFTQKGNLLRHIKL | 0.845 |
| FKCNICGARFTQKGNLLRHIKL | -0.509 |
| FFCDICGACFTQKGNLLRHIKL | -0.64 |
| FFCDQCGAQFTQKGNLLRHIKL | -1.38 |
| FYCPICGACFTQKGNLLRHIKL | 0.666 |
| LYCNQCGFECTQKGNLLRHIKL | -0.27 |
| LACPICGFDCTQKGNLLRHIKL | 0.642 |
| FNCDVCGARFTQKGNLLRHIKL | -0.0975 |

| Sequence | log2 fold change of degron read counts |
| --- | --- |
| FECNICGAAFTQKGNLLRHIKL | -0.579 |
| FVCDVCGAHFTQKGNLLRHIKL | -1.3 |
| LICEICGFTCTQKGNLLRHIKL | -0.382 |
| FRCNVCGAIFTQKGNLLRHIKL | -0.294 |
| LQCEICGFCCTQKGNLLRHIKL | -0.289 |
| FRCPQCGAYFTQKGNLLRHIKL | 0.282 |
| FSCDVCGACFTQKGNLLRHIKL | -1.41 |
| FNCPICGAAFTQKGNLLRHIKL | -0.622 |
| FWCEVCGASFTQKGNLLRHIKL | -1.85 |
| FVCDQCGAPFTQKGNLLRHIKL | -0.716 |
| LFCNQCGFFCTQKGNLLRHIKL | 2.5 |
| FACEICGHMFTQKGNLLRHIKL | -1.34 |
| FLCPQCGAWFTQKGNLLRHIKL | 1.07 |
| FDCEQCGAYFTQKGNLLRHIKL | -0.28 |
| LWCEICGFYCTQKGNLLRHIKL | 2.35 |
| FQCPICGRKFTQKGNLLRHIKL | -0.327 |
| LCCPICGFACTQKGNLLRHIKL | 0.865 |
| FYCEICGADFTQKGNLLRHIKL | -1.55 |
| FACEICGHVFTQKGNLLRHIKL | -0.647 |
| FECNQCGHEFTQKGNLLRHIKL | -0.771 |
| FVCNQCGHCFTQKGNLLRHIKL | -0.545 |
| FYCEVCGAMFTQKGNLLRHIKL | -0.413 |
| FSCNQCGRPFTQKGNLLRHIKL | -0.133 |
| FKCEICGAAFTQKGNLLRHIKL | -1.68 |
| FKCNVCGAQFTQKGNLLRHIKL | -0.99 |
